# Measured values as given in PubChem BioAssay AID1240 (Sanford-Burnham Center for Chemical Genomics, 2008).
# The whole screen tested about 50,000 compounds, of which about 800 (1.6%) showed an effect of 50% or more. The list shows a part of the results.
# Target: Bcl-2-like protein 10 (Homo sapiens) (UniProt Q9HD36)
# Assay: Phenotype converters, Bcl-B/TR3 peptide binding displacement, primary biochemical FP (AID 1240);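 note: 0% = Bcl-B with tracer peptide and DMSO and 100% = tracer peptide lacking Bcl-B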
# Conditions: GST-Bcl-B / FITC-TR3 peptide fluorescence polarization; stronger effect = higher value; compound at 3.75 mg/L
# Sequence of UniProt Q9HD36 (Q9HD36 whole entry, looked up): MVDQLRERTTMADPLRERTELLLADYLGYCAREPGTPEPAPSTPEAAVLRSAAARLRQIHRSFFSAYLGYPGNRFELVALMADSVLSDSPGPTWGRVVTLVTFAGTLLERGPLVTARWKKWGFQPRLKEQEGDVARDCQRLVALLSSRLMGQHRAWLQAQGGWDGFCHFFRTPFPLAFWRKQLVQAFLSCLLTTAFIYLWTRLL
row,SMILES,displacement [%]
1,C=CCN(c1ccccc1C(=O)O)S(=O)(=O)/C=C/c1ccccc1,-7
2,COc1ccc2c(c1)CC/C(=C\c1cccc(F)c1)C2=O,1.8
3,Brc1ccccc1OCCCCCCN1CCCCC1,22.7
4,O=C(Nc1cccc(O)c1)c1ccc(NC(=O)C(c2ccccc2)c2ccccc2)cc1,-10.8
5,Cc1ccc(C(=O)N2CCN(c3c(Cl)cccc3[N+](=O)[O-])CC2)cc1,9.1
6,Nc1nonc1-c1ncc(-c2ccc(Br)cc2)nn1,30.1
7,Cc1ccc(/C(N)=N/OC(=O)c2ccccc2I)cc1,0
8,COc1ccc(N2CCN(C(=O)c3cc(F)c(F)cc3Cl)CC2)c([N+](=O)[O-])c1,-3.1
9,CCOc1cc(/C=N/n2nnnc2N)ccc1O,5
10,COc1cc(/C=N/N=C2\NC(=O)C(CC(=O)O)S2)cc(OC)c1OC (configuration not stated),-10.3
11,O=C(Nc1ccc(S(=O)(=O)Nc2ncccn2)cc1)c1cncc(Br)c1,38.4
12,CC(C)Oc1ccccc1NC(=O)CSCC(=O)Nc1ccccc1,15.6
13,COc1ccc(S(=O)(=O)N2CCN(C(=O)CC(C)C)CC2)cc1,13.2
14,CCc1ccc(C(=O)N2CCN(c3ccc([N+](=O)[O-])cc3)CC2)cc1,-5.5
15,C/C(=N\NC(=O)COc1ccccc1[N+](=O)[O-])c1ccc(Cl)cc1,4.4
16,CC12C=CC(O1)C1C(=O)N(c3ccc(Cl)cc3)C(=O)C12 (configuration not stated),9.6
17,O=C(c1cc(F)c(F)cc1Br)N1CCOCC1,-4.8
18,CC(=O)c1ccc(NC(=O)c2cc(Cl)ccc2Cl)cc1,4.5
19,COc1ccc(CC(=O)N/N=C(\C)CC(=O)Nc2ccccc2C)cc1OC,-21.3
20,COC(=O)c1cc(Cl)c(C(=O)OC)c2c(C(=O)OC)cc(Cl)c(C(=O)OC)c12,4.2
21,O=C1CS/C(=N/N=C/c2ccccc2OCc2ccc(Cl)cc2Cl)N1,22.1
22,O=C(/C=C/c1ccccc1[N+](=O)[O-])c1ccc(Cl)cc1,-7.8

row,SMILES,displacement [%]
1,CC(=O)C1=C(Nc2ccc(Br)cc2)CC(C)(O)C(C(C)=O)C1c1ccc(C)cc1 (configuration not stated),-4.9
2,COCCOC(=O)c1c(C)oc2ccc(OC(=O)c3ccccc3OC)cc12,15.9
3,C#Cc1cccc(NC(=O)c2cccc(OC)c2)c1,-17.4
4,CCOC(=O)c1c(C)[nH]c(/C=C2\C(=O)C=Cc3ccccc32)c1O,6.4
5,CC(C)CC(C(=O)O)n1c(O)c(C2=c3ccccc3=NC2=O)sc1=S (configuration not stated),2.1
6,O=C(Cc1ccc(Cl)cc1)NC(c1ccccc1)c1ccccc1,-4.3
7,Cc1cc(NS(=O)(=O)c2ccc(NC(=O)C(C)Oc3cccc(Cl)c3)cc2)nc(C)n1 (configuration not stated),14.1
8,CCOc1ccc(S(=O)(=O)N(CC(=O)Nc2ccc(OC)c(OC)c2)c2ccc(C)cc2)cc1,-2.3
9,O=C1c2ccccc2C(=O)N1c1ncc(Cc2cc(Cl)ccc2Cl)s1,5.3
10,CC1(C)Cc2nc3nc(NN)n(-c4ccccc4)c(=O)c3cc2CO1,3.8
11,CC(=O)Oc1cccc(N2C(=O)c3ccc(C(=O)c4ccc5c(c4)C(=O)N(c4cccc(OC(C)=O)c4)C5=O)cc3C2=O)c1,1.8
12,CN(C)c1ccc(/C=C(\C#N)c2nc(-c3ccc4c(c3)OCO4)cs2)cc1,-3
13,Cc1ccc(Nc2ccc([N+](=O)[O-])c3nonc23)cc1,-2.1
14,COC(=O)c1ccccc1NC(=O)C1CC(=O)N(c2ccc(C)cc2)C1 (configuration not stated),1.9
15,COc1ccc(/C=C2\C(=O)N(C)C(=S)N(c3ccc(C)cc3)C2=O)cc1OC,12.3
16,O=C(c1ccc(F)c(F)c1)N1CCN(c2cc(N3CCCC3)c(F)cc2[N+](=O)[O-])CC1,-2.6
17,CNc1c(Cl)c(Cl)c(Cl)c2c1C(=O)c1ccccc1C2=O,11.2
18,Cc1ccc(NC(=O)C(=O)NCc2ccco2)c(C)c1,7.5
19,CCN(CC)c1ccc(/C=N/N2C(=O)c3ccccc3C2=O)cc1,-1.2
20,NNc1nnc2c(n1)[nH]c1ccc(Br)cc12,-2.2
21,CCc1ccc(N2CC(C(=O)Nc3ccc(Cl)c(Cl)c3)CC2=O)cc1 (configuration not stated),8.5
22,Cc1occc1C(=O)O/N=C(\N)c1cccnc1,12.7

row,SMILES,displacement [%]
1,C#CCOc1c(Br)cc(C2C(C(=O)OC)=C(C)NC3=C2C(=O)c2ccccc23)cc1OC (configuration not stated),12.1
2,COc1cc(/C=C/c2cc(C(F)(F)F)[nH]c(=O)n2)ccc1OCc1ccc(Cl)cc1Cl,41.6
3,C/C(=N\Nc1cc(-c2ccccc2)nc(C)n1)c1ccccc1,3.3
4,COc1ccccc1NC(=O)c1ccccc1-c1ccccc1C(=O)O,3.1
5,Cc1ccccc1NC(=O)C(=O)NCc1ccc2c(c1)OCO2,13.3
6,CCSc1nc(N)c2c3c(sc2n1)COC(C)(CC)C3 (configuration not stated),0
7,COc1ccc(N(CC(=O)Nc2cccc(C(F)(F)F)c2)S(C)(=O)=O)cc1,-0.8
8,Nc1nonc1C(=O)NCCNC(=O)c1cccc(Br)c1,12.6
9,Cc1ccc(N(CC(=O)NCc2ccco2)S(=O)(=O)c2ccc(F)cc2)cc1,-11.5
10,O=c1/c(=C/c2ccccc2OS(=O)(=O)c2ccccc2)sc2nc3ccccc3n12,18.6
11,Cc1c(NC(=O)CN(c2ccc(F)cc2)S(=O)(=O)c2ccccc2)c(=O)n(-c2ccccc2)n1C,-1.5
12,COc1ccc(-c2nc3cc(NC(=S)NC(=O)c4ccccc4Cl)ccc3o2)cc1Cl,-22.1
13,Cc1ccc2oc(-c3ccccc3N)nc2c1,3.4
14,O=C1CCCC2=C1C(c1ccc([N+](=O)[O-])cc1)C1=C(CCCC1=O)O2,-2
15,COc1cc(C=C2C(=O)NC(=O)NC2=O)ccc1OCc1cccc(F)c1,32.7
16,COC(=O)c1cc(NC(=O)COc2cc(C)c(Cl)c(C)c2)cc(C(=O)OC)c1,5.1
17,CCC(=O)Nc1cccc2c1C(=O)c1ccccc1C2=O,11.2
18,COc1ccc(/C=C/c2nc3sc4c(c3c(=O)o2)CCCC4)cc1,16.8
19,COc1ccc(OC)c(NC(=S)Nc2ccc(F)cc2)c1,-3.2
20,CCOC(=O)N1CCN(c2cc(C)c([N+](=O)[O-])cc2F)CC1,-18.2
21,CCC(C(=O)NCc1ccco1)c1ccccc1 (configuration not stated),-0.7
22,O=S(=O)(NCc1ccccc1)c1cccc(S(=O)(=O)c2ccccc2)c1,-13.4

row,SMILES,displacement [%]
1,C/C(=N\OCC(=O)N=Nc1c(O)n(CN2CCN(C)CC2)c2ccccc12)c1cccs1,-6.2
2,O=C1C(=O)c2ccccc2/C1=C\c1cccc2ccccc12,11.8
3,COc1ccc(-c2nnc3ccc(C(F)(F)F)cn23)c(OC)c1,-6.2
4,CCN(CC)c1ccc(/C=C(/NC(=O)c2ccccc2Br)C(=O)NCCCC(=O)O)cc1,-2.6
5,Cc1onc(-c2c(Cl)cccc2Cl)c1C(=O)NC1CCCC1,1.5
6,O=C(NCc1ccco1)c1nn2c(c1Cl)NC(c1cccs1)CC2C(F)(F)F (configuration not stated),4.5
7,CCOC(=O)c1c(C)[nH]c(N=Nc2ccccc2C)c1C,5.1
8,COc1ccc(OC)c(CN2CCN(Cc3ccc(Br)cc3)CC2)c1,0.4
9,COc1ccc(-c2cc(C(=O)NCCc3ccc(OC)c(OC)c3)c3ccccc3n2)c(OC)c1,2.6
10,CCOC(=O)c1c(-c2ccccc2)oc2cc(Br)c(OCC)cc12,8
11,CCN(CC)c1ccc(N2C(=O)/C(=C/c3ccc([N+](=O)[O-])cc3)SC2=S)cc1,-3.3
12,COc1cc(C2NC(=S)NC(C)=C2C(=O)Nc2ccc(C)cc2)ccc1O (configuration not stated),2.8
13,COc1cc(/C=C/c2cc(C(F)(F)F)[nH]c(=O)n2)cc(OC)c1OC,2.7
14,Cc1ccc([N+](=O)[O-])cc1N=Cc1ccc([N+](=O)[O-])o1,-0.3
15,COCCCNCCOCCOc1cccc(OC)c1,-8
16,CCCC(=O)C1=C(N2CCCCC2)CC(C)(C)C(C(=O)OC)C1=O (configuration not stated),0.8
17,C=CCNC(=O)CN(c1ccc(OCC)cc1)S(=O)(=O)c1ccc(SC)cc1,0.6
18,Cc1cccc(C(=O)NNC2=C(C(=O)C(F)(F)F)CCC2)c1O,-12.1
19,OC1CC(c2ccccc2)NC(c2ccco2)C1 (configuration not stated),11.4
20,O=C(O)c1cccc(NC(=O)c2cc(S(=O)(=O)NCc3ccccc3)ccc2Cl)c1,-7.6
21,CCOc1ccc(/C=C2/SC(=O)N(CNc3cccc(Br)c3)C2=O)cc1,1.9
22,COc1ccc(CCNC(=O)C2CC(=O)N(c3ccc(F)cc3)C2)cc1 (configuration not stated),6.2

row,SMILES,displacement [%]
1,CSc1cccc(NC(=O)CSc2nc3ccccc3s2)c1,6.4
2,COc1ccc(C(=O)O/N=C2/C(=O)N(C)c3ccccc32)cc1OC,15.7
3,COc1ccc(/C=N/NS(=O)(=O)c2ccc(C(C)(C)C)cc2)c(OC)c1,7.1
4,Brc1ccc(OCCCN2CCOCC2)cc1,8.9
5,CCC1S/C(=N/N=C/c2ccc3c(c2)OCO3)NC1=O (configuration not stated),-13.8
6,CN1CCN(c2nc(-c3ccccc3O)nc3ccccc23)CC1,15.1
7,Cc1ccc(Sc2c(C)nn(C(=O)c3cccnc3)c2C)cc1,-10.3
8,Cc1ccccc1N(CC(=O)NCC(C)c1ccccc1)S(=O)(=O)c1ccccc1 (configuration not stated),-8
9,COc1ccccc1N1CCN(C(=O)c2cnn3c2NC(c2ccc(Br)cc2)CC3C(F)(F)F)CC1 (configuration not stated),9.1
10,CC(C)OC(=O)c1c(-c2ccccc2)csc1NC(=O)CCC(=O)O,3.5
11,O=C(/C=C\c1ccc([N+](=O)[O-])cc1)Nc1ccc(N2CCOCC2)cc1,6
12,C=CCNc1nc(-c2ccc(C)cc2C)cs1,-3.1
13,CSc1ccc(-c2ncnn2-c2ccccc2Cl)cc1,-10.1
14,Cc1ccc(N(CC(O)CN2CCOCC2)S(=O)(=O)c2ccccc2)cc1 (configuration not stated),-2.5
15,c1ccc(Oc2cccc(CN3CCN(C4CCCC4)CC3)c2)cc1,-5.2
16,Cc1ccc(N2C(=O)c3ccccc3NC2c2c(F)c(F)c(F)c(F)c2F)cc1 (configuration not stated),7.8
17,Cc1cccc(C(=O)N/N=C/c2ccc(OCC(=O)N3CCCCC3)cc2)c1,-7
18,CC(C)c1cccc(C(C)C)c1NC(=O)C(F)(F)F,-1.3
19,Cc1c(C(c2cc(O)c(O)c(Br)c2)c2c(C)n(C)n(-c3ccccc3)c2=O)c(=O)n(-c2ccccc2)n1C,35.5
